The source of these data is ChEMBL document CHEMBL4888484, “Replenishing the malaria drug discovery pipeline: Screening and hit evaluation of the MMV Hit Generation Library 1 (HGL1) against asexual blood stage Plasmodium falciparum ,using a nano luciferase reporter read-out” (2022).

Screen size: about 150,000 compounds; about 540 (0.36%) showed an effect of 50% or more. The list shows a part of the results.

For this assay, the system named is Plasmodium falciparum. Kind of assay: Primary screen in NF54 nanoGlo assay, in single point, at 2uM, 72h; a lower Z score goes with more inhibition. Format: functional, Erythrocyte. To be noted: timepoint 72 hour.
What is called % Inhibition is the drop in the measured response relative to a control, in per cent. For the compound `CCc1cc(C(=O)Nc2ccc(F)cc2C)nc2ccnn12`, the “% Inhibition” value is on record as 0% and the Z score is given as 0.06.
The matching figures for `Cc1cc(C(=O)N2CCC3(CC2)CC(=O)N(CC(C)C)C3)nc(C)n1`: -22% and 2.31.
As to `C=CCC[C@H](O)CN1CC(C)(C)OC(C)(C)C1`, the “% Inhibition” value is given as -13% and the Z score is given as 1.21.
The matching figures for `Brc1cnc2[nH]c(CN3CCCCC3)nc2c1`: -4% and 0.79.
`COC(=O)c1ccc(Cl)c(Cc2noc(C(=O)NC[C@@H]3CCCN4CCCCC34)n2)c1` (stereo partly specified): the “% Inhibition” value is reported as -9% and the Z score came out at 1.21.
On to `Cc1ccc(C)c(CNc2cc(C(=O)N(C)Cc3nccs3)cc(S(=O)(=O)N(C)C)c2)c1`, for which the “% Inhibition” value was -7% and the Z score was found to be 0.8.
Regarding `Cc1nn(C)c(C)c1CC(=O)Nc1ccc(N(C)C)nc1`, the “% Inhibition” value was -5% and the Z score is 0.89.
Turning to `Cc1ccc(OCC(=O)N2C[C@@H](CN3CCCCCC3)[C@@H](CO)C2)cc1C`, the “% Inhibition” value was -8% and the Z score came to 1.31.
The matching figures for `COc1ccc(/C=C(\C(=O)N(C)Cc2ccccc2)n2ccccc2=O)cc1`: -31% and 3.64.
For `Cc1cc(C)n(-c2ccc(NC(=O)c3oc4c(c3C)C(=O)CC(C)(C)C4)cc2F)n1`, the “% Inhibition” value is given as -19% and the Z score was determined as 2.5.
`CO[C@@H](CS(=O)(=O)Nc1cncc(N2CCCC2)n1)c1ccc(F)cc1`: the “% Inhibition” value is -11% and the Z score was 1.5.
For `Cc1ccccc1CN1CCN2C(=O)N(C3CCCCC3)C[C@H]2C1`, in that order: -3% and 0.33.
As to `Cc1cc(C)nc(N2CC[C@H](N(C)C(=O)OC(C)(C)C)C2)n1`, the “% Inhibition” value is -7% and the Z score was 1.17.
For `Cc1nnc(N[C@H]2CCN(Cc3ccccc3)C2)o1`, the “% Inhibition” value amounted to 4% and the Z score is on record as -0.71.
As for `O=S(=O)(c1ccccc1)c1cnc2ccccc2c1N1CCCC1`, the “% Inhibition” value is on record as -9% and the Z score is 1.46.
Regarding `O=C(c1cn(C[C@H]2CCCO2)nn1)N1CCC(Oc2cccc(C(F)(F)F)c2)CC1`, the “% Inhibition” value is listed as -16% and the Z score is recorded as 2.27.
For `COc1ccc(NC(=O)[C@@H](c2ccccc2)C2CC2)cn1`, the “% Inhibition” value amounted to 0% and the Z score amounted to 0.02.
As to `CCOC(=O)c1nnc2ccccc2c1N(C)Cc1ccccc1`, the “% Inhibition” value is given as -8% and the Z score amounted to 0.82.
The matching figures for `Cc1ccc(CNC(=O)c2[nH]c3ccc(F)cc3c2NC(=O)c2ccccc2)cc1`: -1% and 0.25.
Consider `Cc1cccnc1C1CCCC(NCc2ncnn2C(C)(C)C)C1` (stereo unspecified), for which the “% Inhibition” value is on record as 0% and the Z score came out at 0.06.
For `COc1ccc(OC)c(CN(Cc2ccc3c(c2)OCO3)Cc2nc(C(=O)N3CCN(C(C)=O)CC3)co2)c1`, in that order: -9% and 0.9.
For the compound `COc1cc(C(=O)NC(C)(C)CN(C)C)c(Cl)cc1OC(C)C`, the “% Inhibition” value worked out at 7% and the Z score is -1.35.
Regarding `Cc1ccc(NC(=O)Cn2cnc3nc(-c4cccnc4)ncc3c2=O)cc1F`, the “% Inhibition” value is reported as -17% and the Z score is 2.
With `CN(C)c1cc(C(=O)Nc2ncc(Cc3ccc(F)cc3F)s2)ccn1`, the “% Inhibition” value worked out at 0% and the Z score was determined as 0.
Consider `Cc1cc(F)ccc1OC(=O)c1cn(C)nc1C`, for which the “% Inhibition” value is reported as -7% and the Z score amounted to 0.75.
The matching figures for `COc1ncccc1CNC1CCCC1C1CCCN1C(=O)OC(C)(C)C` (stereo unspecified): 7% and -0.87.
Take `C=CCC(O)(CC=C)[C@H](C)NC(=O)c1ncc[nH]1`: the “% Inhibition” value was -7% and the Z score turned out to be 1.26.
As for `Cc1ccc2nc(COc3cccc(C(=O)N(CC(F)F)C[C@H]4CCC=CO4)c3)cn2c1`, the “% Inhibition” value is reported as -2% and the Z score came to 0.29.
`Cc1c[nH]nc1COCc1cc(F)ccc1OC(F)F`: the “% Inhibition” value is recorded as 2% and the Z score is reported as -0.17.
The matching figures for `Cc1nc2ccnn2cc1C(=O)N1CC[C@@](F)(c2ccccc2F)C1`: -7% and 0.88.
Consider `Cc1nc(-c2ccccc2)n(CCCOc2ccc(C)c(C)c2)n1`, for which the “% Inhibition” value was -2% and the Z score came out at 0.36.
As to `CC[C@H](NC(=O)c1c(C)ncn1C)c1ccc(C)cn1`, the “% Inhibition” value is reported as -13% and the Z score came to 1.41.
As for `C[C@H]1CN(C)CCN1C(=O)c1csnn1`, the “% Inhibition” value is recorded as -2% and the Z score came out at 0.31.
Regarding `O=C1COc2ccc(S(=O)(=O)N3CCCc4cc(C(=O)O)ccc43)cc2N1`, the “% Inhibition” value was -2% and the Z score is recorded as 0.3.
Turning to `O=C(Cn1ncccc1=O)N1CC(S(=O)(=O)C2CCCCC2)C1`, the “% Inhibition” value is recorded as -21% and the Z score is reported as 2.65.
Turning to `Cc1cc(C(=O)NCc2ccc(Cl)cc2)c2cccc(-c3ccccc3)c2n1`, the “% Inhibition” value is recorded as 7% and the Z score is recorded as -0.81.
The matching figures for `CC(C)n1cc([C@]2(O)CCCN(C(=O)COCc3ccccc3)C2)nn1`: 0% and -0.04.
The matching figures for `CCCc1nnsc1C(=O)Nc1ccc2[nH]ccc2c1`: 5% and -0.78.
In the case of `CCO[C@H]1CN(C)C[C@@H]1NS(=O)(=O)c1ccc(C)cc1`, the “% Inhibition” value was -1% and the Z score amounted to 0.19.
As for `NC[C@H]1CC[C@@H](C(=O)NC2CC2c2c(F)cccc2F)O1` (stereo partly specified), the “% Inhibition” value is given as 11% and the Z score is -1.15.
The matching figures for `c1ccc2c(-c3noc([C@@H]4CN5CC6CC5(CO4)C6)n3)nccc2c1`: -11% and 1.69.
For the compound `COc1ccnc(-c2nc([C@H]3CCOC3)no2)c1`, the “% Inhibition” value is listed as -5% and the Z score was 0.8.
On to `Cc1nc(-c2csc(S(=O)(=O)N3CCC[C@H](C(=O)N4CCCC4)C3)c2)no1`, for which the “% Inhibition” value is recorded as -5% and the Z score was determined as 0.62.
